In all, about 310,000 compounds went through this assay and about 2,200 (0.71%) showed an effect of 50% or more. The effect is printed as a negative number. This is one part of the list.
molecular target: human ether-à-go-go-related gene (hERG) potassium channel (human, UniProt Q12809); assay: primary screen, population patch clamp on CHO cells stably expressing hERG
Sequence (Q12809 whole entry, looked up): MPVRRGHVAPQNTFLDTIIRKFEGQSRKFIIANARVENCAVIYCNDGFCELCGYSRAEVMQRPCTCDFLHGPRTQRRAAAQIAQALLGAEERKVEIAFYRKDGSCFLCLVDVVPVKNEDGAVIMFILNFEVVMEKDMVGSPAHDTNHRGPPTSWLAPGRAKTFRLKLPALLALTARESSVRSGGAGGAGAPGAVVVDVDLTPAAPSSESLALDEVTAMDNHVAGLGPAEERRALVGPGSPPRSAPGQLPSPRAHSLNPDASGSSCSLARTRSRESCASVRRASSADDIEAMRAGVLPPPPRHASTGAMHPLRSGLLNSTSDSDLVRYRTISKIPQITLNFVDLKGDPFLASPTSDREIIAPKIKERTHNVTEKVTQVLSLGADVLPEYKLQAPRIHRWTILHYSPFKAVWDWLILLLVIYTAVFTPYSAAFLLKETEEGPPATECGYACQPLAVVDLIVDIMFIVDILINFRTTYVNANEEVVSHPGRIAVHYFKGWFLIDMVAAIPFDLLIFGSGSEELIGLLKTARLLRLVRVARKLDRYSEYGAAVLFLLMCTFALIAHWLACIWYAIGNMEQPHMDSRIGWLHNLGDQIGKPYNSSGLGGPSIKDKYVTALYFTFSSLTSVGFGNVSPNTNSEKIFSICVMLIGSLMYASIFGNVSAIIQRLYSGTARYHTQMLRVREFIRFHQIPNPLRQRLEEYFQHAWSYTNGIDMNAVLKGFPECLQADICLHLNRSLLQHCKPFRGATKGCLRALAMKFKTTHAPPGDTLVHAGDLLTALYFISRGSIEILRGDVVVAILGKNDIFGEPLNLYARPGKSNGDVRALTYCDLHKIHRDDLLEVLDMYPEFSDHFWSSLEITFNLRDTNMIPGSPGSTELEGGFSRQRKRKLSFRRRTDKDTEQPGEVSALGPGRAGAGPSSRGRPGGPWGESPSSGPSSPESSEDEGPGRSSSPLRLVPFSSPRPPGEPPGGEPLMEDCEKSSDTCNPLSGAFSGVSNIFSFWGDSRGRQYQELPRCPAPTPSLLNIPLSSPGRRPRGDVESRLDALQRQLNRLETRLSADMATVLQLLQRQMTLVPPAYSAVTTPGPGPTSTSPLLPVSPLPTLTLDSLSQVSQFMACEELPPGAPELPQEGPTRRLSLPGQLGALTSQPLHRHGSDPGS

Row | Compound | hERG current change (%, negative = inhibition) at 1uM
1 | Cc1ccnc(NS(=O)(=O)c2cc(C(F)(F)F)ccc2Cl)c1 | 8.03%
2 | CN(C)c1ccc(C(C[N+](=O)[O-])c2c(N)n(C)c(=O)n(C)c2=O)c(F)c1C#N (stereo not drawn) | 13.1%
3 | CCOC(=O)N1CCN(c2cc(=O)n(C)c(=O)n2C)CC1 | 16.3%
4 | COc1ccc(CCn2c(N)c(C#N)c3nc4ccccc4nc32)cc1OC | 14%
5 | COc1nc(-c2ccccc2)ccc1-c1noc(-c2ccco2)n1 | -3.78%
6 | CCOC(=O)N1CCN(Cc2nc3cc(NC(=O)CC(C)C)ccc3n2CC)CC1 | 5.23%
7 | CN1CCCN(C(=O)c2ccccc2Cl)CC1 | 5.08%
8 | CCOC(=O)c1ccc(NC(=O)CSc2nc(C)nc3c2c(=O)n(C)c(=O)n3C)cc1 | -14.2%
9 | N#Cc1cnn(CC2CCCCC2)c1N | 7.07%
10 | O=C(CN(c1ccccc1)S(=O)(=O)c1ccccc1)N/N=C/c1ccco1 | -1.61%
11 | Cc1cc(C(F)(F)F)c(C#N)c(SCC(=O)NC2CC2)n1 | 2.36%
12 | CCCCN(CC)Cc1c(O)ccc2c(-c3ccccc3)cc(=O)oc12 | 4.93%
13 | CC1(C)OC1COc1c2occc2cc2ccc(=O)oc12 (stereo not drawn) | 13.6%
14 | Cc1ccc2c(c1)N(CC(=O)NC1CCCC(C)C1C)C(=O)c1cccnc1O2 (stereo not drawn) | 6.52%
15 | COc1ccc(C(=O)NCC(C)NC(=O)c2ccc(OC)c(Br)c2)cc1Br (stereo not drawn) | -6.01%
16 | CCCc1nc2ccccc2c(C(=O)OC2CCOC2=O)c1CC (stereo not drawn) | 1.89%
17 | CCOc1ccc(NC(=O)CN(C)C(=O)CC(NC(=O)c2ccccc2)c2ccccc2)cc1OCC (stereo not drawn) | -3.2%
18 | CCOC(=O)C1CCCN(C(=O)c2ccc3c(c2)N(C)C(=O)/C(=C/c2ccccc2Cl)S3)C1 (stereo not drawn) | 4.44%
19 | COC(=O)CSc1nc(-c2ccc(F)cc2)cc(C(F)(F)F)n1 | 15%
20 | OC1(c2ccccc2Cl)NN=C2CCCCCN21 (stereo not drawn) | 9.28%
21 | Cc1ccccc1OCC(=O)NC(=S)Nc1ccc(N2CCOCC2)c(Cl)c1 | 9.77%
22 | CN(CC(=O)Nc1ccc(Cl)cc1)C(=O)c1ccc(N2CCCC2=O)cc1 | 9.27%
23 | COc1cc(/C=N/NC(=O)c2cccnc2)ccc1OS(=O)(=O)c1ccc(C)cc1 | 8.24%

Row | Compound | hERG current change (%, negative = inhibition) at 1uM
24 | Cc1ccc(Nc2nc(-c3c(C)n(C)n(-c4ccccc4)c3=O)c(C)s2)cc1 | 6.69%
25 | CN1CCN(C(=O)C2CC(=O)N(c3ccc(F)c(Cl)c3)C2)CC1 (stereo not drawn) | 13.5%
26 | CCOc1c(Br)cc(Br)cc1/C=C1\SC(N)=NC1=O | 17.8%
27 | CN(C)CCN1C(=O)c2oc3ccccc3c(=O)c2C1c1ccc(F)cc1 (stereo not drawn) | -2.93%
28 | CC(C)C(=O)Nc1ccc(NC(=O)c2ccco2)cn1 | 8.74%
29 | CCn1c(SCC(=O)N/N=C/C=C/c2ccco2)nnc1-c1ccccc1 | -1.54%
30 | COc1ccc(Cc2nc3ccc(C(=O)NCC4CCOCC4)cc3o2)cc1OC | 12.6%
31 | Cc1ccc(C(=O)C(=O)c2ccc(C)c(N)c2)cc1N | 4.71%
32 | Nc1nonc1C(=O)N1CCCCC1 | 3.32%
33 | CC(C)n1c(N2CCN(C(=O)c3cccs3)CC2)nc2ccccc21 | -26.9%
34 | N#CC1=C(N)OC2=C(CCc3ccccc32)C1c1ccccc1 (stereo not drawn) | 2.68%
35 | N#CC1=C2C=Cc3ccccc3N2CCCC1=O | 3.2%
36 | CC(Sc1nc(N2CCCCC2)c2c(c1C#N)CCCC2)C(=O)O (stereo not drawn) | 16.5%
37 | COc1cc(C(=O)NCC(=O)NCCN2C(=O)S/C(=C\c3ccc4c(c3)OCO4)C2=O)cc(OC)c1OC | 16.1%
38 | Clc1ccc(-c2nc(-c3cnccn3)no2)cc1 | 10.9%
39 | CCC(Oc1ccccc1)C(=O)Nc1cc(C)on1 (stereo not drawn) | 3.64%
40 | CC(C1CC1)N(Cc1ccccc1)C(=S)Nc1ccccc1Cl (stereo not drawn) | 3.13%
41 | Cc1nn(C(C)C(=O)N2CCc3ccccc3C2)c(=O)c2cc3occc3n12 (stereo not drawn) | -2.66%
42 | CC(C)(C)NC(=O)CC(CC(=O)O)c1ccccc1 (stereo not drawn) | 11.3%
43 | CCOC(=O)/C(C(=O)Nc1ccc(Cl)cc1Cl)=C1/NC(C)(C)Cc2ccccc21 | 3.52%
44 | CON1C(=O)C(=O)N(OC)C(C)(C)C1(C)C | 9.25%
45 | Cc1ccccc1-n1c(Cn2c(=O)sc3ccccc32)nnc1SCC(=O)N1CCCC1 | 3.49%

— article PMC4336329 (PLoS ONE, 2015)
